Laboratory results from PMC6919601, “Identification of Plasmodium dipeptidyl aminopeptidase allosteric inhibitors by high throughput screening” (PLoS ONE, 2019).
Hit rate of the full screen: of about 110,000 compounds, about 230 (0.21%) showed an effect of 50% or more. Some of the results follow.

The compounds below were run against DPAP1 (Plasmodium falciparum, UniProt Q8IIJ9) (assay: primary screen, percent inhibition; read by cleavage of a fluorogenic dipeptide substrate; higher = more effect of the substance).
Sequence of DPAP1 (Q8IIJ9 whole entry, looked up): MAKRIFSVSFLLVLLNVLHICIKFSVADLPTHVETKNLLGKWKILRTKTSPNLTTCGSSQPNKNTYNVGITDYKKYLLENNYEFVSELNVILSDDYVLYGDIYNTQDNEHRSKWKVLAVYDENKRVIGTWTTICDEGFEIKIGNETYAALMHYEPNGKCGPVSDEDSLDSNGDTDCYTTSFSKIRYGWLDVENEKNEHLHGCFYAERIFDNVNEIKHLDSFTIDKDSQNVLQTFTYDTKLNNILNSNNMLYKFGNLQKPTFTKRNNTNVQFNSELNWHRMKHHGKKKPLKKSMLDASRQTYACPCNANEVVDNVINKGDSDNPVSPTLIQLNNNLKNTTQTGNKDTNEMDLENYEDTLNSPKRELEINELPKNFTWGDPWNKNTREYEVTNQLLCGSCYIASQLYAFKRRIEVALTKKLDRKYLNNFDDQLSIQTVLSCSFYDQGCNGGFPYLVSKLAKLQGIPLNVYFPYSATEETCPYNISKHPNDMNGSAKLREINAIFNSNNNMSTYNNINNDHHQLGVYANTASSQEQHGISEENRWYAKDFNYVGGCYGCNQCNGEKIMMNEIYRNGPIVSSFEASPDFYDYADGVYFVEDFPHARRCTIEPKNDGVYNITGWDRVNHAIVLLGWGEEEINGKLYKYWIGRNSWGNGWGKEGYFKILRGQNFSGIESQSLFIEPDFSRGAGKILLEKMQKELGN
Design: species or system P. falciparum D10 trophozoite lysates; single well
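Note: 30 min substrate incubation versus DMSO and 10 µM JCP410 controls.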

Row | Structure (SMILES) | % Inhibition @ 10 uM
1 | O=C(NC1=NCCS1)c1sc2ccccc2c1Cl | 3.82%
2 | CCOc1ccc(Nc2nc(-c3ccccn3)cs2)cc1 | -9.68%
3 | Cc1cc(C)n(-c2ccccc2Cl)c(=O)c1C(=O)O | 3.99%
4 | Cc1oc(-c2cccs2)nc1CS(=O)CC(=O)NC1CCCC1 (stereo not shown) | -0.138%
5 | O=C(NCCc1ccc(Cl)cc1)c1ccc2c(c1)ncn2C1CCCC1 | 0.387%
6 | NC(=O)Cn1c(S(=O)(=O)Cc2ccccc2)nc2ccccc21 | 1.62%
7 | COc1cc(CNCCO)cc(Cl)c1OCc1ccccc1Cl | -6.43%
8 | Cc1sc(NC(=O)C2CC2c2ccccc2)nc1-c1ccccc1 (stereo not shown) | -0.67%
9 | CCCN1C(=O)NC(C(F)(F)F)(C(F)(F)F)C2=C1CC(C)(C)CC2=O | 1.91%
10 | COn1c(-c2ccccc2)nc2c1CCc1nonc1-2 | 4.08%
11 | Cc1cc2n(n1)CCCN2C(=O)CCC(=O)N1CCOCC1 | 1.63%
12 | CCn1ncc(Br)c1C(=O)Nc1ccn(Cc2ccccc2)n1 | -3.18%
13 | CCC(C)NC(=O)C(=O)Nc1cccc(Cl)c1 (stereo not shown) | 2.94%
14 | CC1=C(C(=O)OCC(Cl)(Cl)Cl)C(c2cccc3ccccc23)NC(=O)N1 (stereo not shown) | 20.5%
15 | Cc1ccccc1OCc1nc(C#N)c(N2CCCC2)o1 | -7.55%
16 | O=C(NCCC1=CCCCC1)C1CCCN(c2nc3ccccc3o2)C1 (stereo not shown) | -1.34%
17 | Cc1sc(NC(=O)c2ccc(F)cc2)c(C(N)=O)c1C | 9.41%
18 | CC(C)c1nc2c(c3c1[nH]c1ccccc13)C(=O)CC(C)(C)C2 | -5.59%
19 | Cc1nn(C(C)C(=O)N2CCN(Cc3ccc4c(c3)OCO4)CC2)c(=O)c2c1sc1ccccc12 (stereo not shown) | -1.49%
20 | Cc1ccc2c(c1)N1C(=O)c3ccccc3C1C1=C(O)CC(C)(C)CC1=N2 (stereo not shown) | 2.38%
21 | COc1ccc(OCC(=O)NCc2ccccc2)cc1 | -1.29%
22 | Cc1cc(C)nc(NS(=O)(=O)c2ccc(NC(=O)COc3ccc(Br)cc3)cc2)n1 | -0.312%
23 | O=C1C(Cl)=C(Nc2cccc(O)c2)C(=O)N1c1cccc(Cl)c1 | 1.35%
24 | COc1ccc(NC(=O)c2cnn3c(C(F)F)cc(-c4ccc(C)cc4)nc23)cc1OC | 9.06%
25 | COc1ccc(C2C3=C(O)CC(C)(C)CC3=Nc3ccccc3N2C(=O)C(C)C)cc1 (stereo not shown) | 1.4%

Row | Structure (SMILES) | % Inhibition @ 10 uM
26 | Cc1ccc(C2=NS(=O)(=O)N(C)C(C(=O)Nc3cc(C)n(CC(=O)N4CCC(C)CC4)n3)=C2)cc1 | 3.92%
27 | CCc1ccc(CNC(=O)CCn2nc(-c3ccccc3)ccc2=O)cc1 | -0.0542%
28 | Nc1c(-c2nc(-c3cccs3)no2)nnn1-c1ccc(F)cc1 | 3.98%
29 | CCOc1ccc(C2(C)CC(C)(C)N(C(C)=O)c3ccccc32)cc1 (stereo not shown) | 3.44%
30 | COC(=O)c1c(C)oc2cc(Br)c(OS(C)(=O)=O)cc12 | 9.21%
31 | C=CCNc1nc(-c2ccc(OC)cc2)c(CCC(=O)O)s1 | -4.19%
32 | CCCc1nn2c(=O)cc(COc3ccc(/C=C(\C#N)C(N)=O)cc3OC)nc2s1 | -0.495%
33 | CCCOc1ccc(C2C(C(=O)OC)=CN(Cc3ccc(OC)cc3)C=C2C(=O)OC)cc1OC | -3.23%
34 | COc1ccc2nc3sc(C(=O)NC4CCCC(C)C4C)cc3cc2c1 (stereo not shown) | 3.07%
35 | Cc1ccc(N2C(=O)CC(NCc3ccc(Cl)c(Cl)c3)C2=O)cc1 (stereo not shown) | 6.48%
36 | CCc1ccc(CNC(=O)CSc2nnc(C)c3c(C)n(-c4ccccc4)nc23)cc1 | -1.77%
37 | Brc1cccc(-c2nnc(CN3CCCCCC3)o2)c1 | -2.23%
38 | c1ccc(Cc2nnc3sc(-c4ccco4)nn23)cc1 | -5.38%
39 | O=C(O)CCNc1nc(-c2ccccc2)nc2ccccc12 | 5.29%
40 | N=C(N)SCCNC1C2CC3CC(C2)CC1C3 (stereo not shown) | -3.62%
41 | COc1nccnc1NS(=O)(=O)c1ccc(NC(=O)c2ccc([N+](=O)[O-])cc2)cc1 | 4.93%
42 | CCC(C(=O)NCCc1ccc(C)cc1)n1nc(C)c2c(C)n(-c3ccccc3)nc2c1=O (stereo not shown) | -4.96%
43 | CC1=C(C(=O)OC2CCC(C)CC2)C(c2ccccc2)NC(=O)N1 (stereo not shown) | 2.24%
44 | COc1ccccc1-c1n[nH]c(SCc2ccccn2)n1 | 6.69%
45 | Cc1nc2cc(-c3ccccc3)nn2c(O)c1Cl | 3.12%
46 | CCn1c(=O)c(C(=O)Nc2ccc(Br)cc2)c(O)c2ccccc21 | -3.04%
47 | COC(=O)c1cc2ccc3c(c2oc1=O)CN(Cc1ccco1)CO3 | 11.2%
48 | CN(C)CCNC(=O)Cn1ncc2c3ccccc3nc-2c1O | -1.96%
49 | CC1CCC(N2CCN(C(=O)c3ccco3)CC2)CC1 (stereo not shown) | 1.42%
